Among all 310,000 compounds or so, about 2,200 (0.71%) showed an effect of 50% or more. The effect is printed as a negative number. Some of the results follow.
These molecules were tested against human ether-à-go-go-related gene (hERG) potassium channel (human, UniProt Q12809) (assay: primary screen, population patch clamp on CHO cells stably expressing hERG).
Sequence of human ether-à-go-go-related gene (hERG) potassium channel (Q12809 whole entry, looked up): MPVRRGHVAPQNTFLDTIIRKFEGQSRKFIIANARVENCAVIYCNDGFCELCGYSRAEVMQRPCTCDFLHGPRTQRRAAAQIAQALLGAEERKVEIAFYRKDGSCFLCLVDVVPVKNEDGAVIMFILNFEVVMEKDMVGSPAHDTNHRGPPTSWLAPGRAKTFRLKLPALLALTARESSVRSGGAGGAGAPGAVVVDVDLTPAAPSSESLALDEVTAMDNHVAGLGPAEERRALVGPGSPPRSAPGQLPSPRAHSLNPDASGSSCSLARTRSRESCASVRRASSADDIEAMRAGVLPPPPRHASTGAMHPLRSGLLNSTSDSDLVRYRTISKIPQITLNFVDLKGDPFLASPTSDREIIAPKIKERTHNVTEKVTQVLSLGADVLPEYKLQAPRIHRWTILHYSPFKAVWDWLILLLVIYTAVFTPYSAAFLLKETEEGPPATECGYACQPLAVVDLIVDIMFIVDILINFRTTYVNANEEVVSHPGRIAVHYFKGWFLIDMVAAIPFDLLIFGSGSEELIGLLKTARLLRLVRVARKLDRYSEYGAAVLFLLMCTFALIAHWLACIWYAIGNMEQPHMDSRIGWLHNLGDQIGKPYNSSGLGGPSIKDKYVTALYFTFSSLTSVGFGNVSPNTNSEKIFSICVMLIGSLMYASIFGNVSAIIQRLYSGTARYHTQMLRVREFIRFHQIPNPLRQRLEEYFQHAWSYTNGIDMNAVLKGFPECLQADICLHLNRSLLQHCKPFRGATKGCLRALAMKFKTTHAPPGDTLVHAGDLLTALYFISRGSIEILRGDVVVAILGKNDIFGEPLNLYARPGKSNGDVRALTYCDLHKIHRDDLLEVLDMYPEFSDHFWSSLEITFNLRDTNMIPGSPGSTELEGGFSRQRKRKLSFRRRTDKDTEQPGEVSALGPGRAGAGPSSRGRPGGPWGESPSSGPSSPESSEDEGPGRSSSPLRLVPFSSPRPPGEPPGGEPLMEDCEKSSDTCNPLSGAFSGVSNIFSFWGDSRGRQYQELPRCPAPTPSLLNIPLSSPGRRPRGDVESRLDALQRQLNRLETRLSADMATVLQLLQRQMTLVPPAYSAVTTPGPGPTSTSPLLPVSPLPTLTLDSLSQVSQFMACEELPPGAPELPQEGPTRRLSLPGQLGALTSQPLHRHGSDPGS

| Compound | hERG current change (%, negative = inhibition) at 1uM [%] |
| --- | --- |
| Cc1ccc(NC(=O)c2cn(CCC#N)nc2-c2ccc3c(c2)OCCO3)c([N+](=O)[O-])c1 | -2.98 |
| Cc1ccc(S(=O)(=O)N2CCOCC2)cc1C(=O)NCCN1C(=O)S/C(=C\c2ccccc2Cl)C1=O | -0.928 |
| Cc1ccc(CS(=O)(=O)c2cn(CC(=O)N3CCOCC3)c3ccccc23)cc1 | 6.59 |
| CN(CC(=O)Nc1ccccc1C(F)(F)F)C(=O)c1ccc2c(=O)n3c(nc2c1)CCC3 | 0.553 |
| COc1ccc2c(n1)Sc1nc3ccccc3nc1N2 | 18.2 |
| CC1CCCN(C(=O)COC(=O)CNC(=O)c2sc3ccccc3c2Cl)C1 (stereo not drawn) | 8.42 |
| CC(C)Oc1ccc(C(=O)OCC(=O)NC(=O)NC2CCCC2)cc1 | 3.28 |
| CCC(C)c1ccc(NC(=O)C2CCCN(c3ncccn3)C2)cc1 (stereo not drawn) | 0.615 |
| CCN1C(=O)CC(c2ccc(OC(C)C)cc2)C1=O (stereo not drawn) | 9.29 |
| CC(=O)c1c(C)[nH]c(C(=O)OCC(=O)Nc2ccccc2Cl)c1C | 4.51 |
| CN(C)CCNC(=O)CNC(=S)N(Cc1ccccc1)Cc1cccnc1 | 6.62 |
| NC(=O)COC(=O)c1sc2ccccc2c1Cl | 23 |
| Cc1cc(C)cc(OCC(=O)OCC(=O)Nc2cc(C)nn2-c2ccccc2)c1 | 15.3 |
| Cc1ccc(-n2nc3c(=O)n(CCCC(=O)N4CCC(C)CC4)nc(C)c3c2C)cc1 | -21.2 |
| O=C(CN1CC(=O)Oc2ccccc21)NCc1ccco1 | 14.1 |
| CC(NC(=O)CN1C(=O)NC2(CCc3ccccc32)C1=O)c1ccccc1 (stereo not drawn) | 1.44 |
| COc1ccccc1-c1sc2ccccc2c1-c1ccc(C(C)=O)cc1 | 12.3 |
| O=C(NCc1ccncc1)C1CCCN(S(=O)(=O)c2cc(Cl)ccc2Cl)C1 (stereo not drawn) | -21.5 |
| OCCN1CCN(c2nnc(-c3ccccc3)c3ccccc23)CC1 | -2.66 |
| Cc1ccc(CNC(=O)c2cc3c(s2)CS(=O)(=O)C3)cc1 | 15.5 |
| CC1(OC(=O)C2CCCC2)C(=O)C=C2C=C(c3ccsc3)N(Cc3ccccc3)C=C2C1=O (stereo not drawn) | 3.1 |
| COc1ccc(CCNC(=O)c2ccc3c(c2)NC(=O)C(C(C)C)N3)cc1OC (stereo not drawn) | 13.7 |
| C#CCN1C(=O)C2(OCCO2)c2ccccc21 | 15.3 |
| Cc1cc(C)c(S(N)(=O)=O)c(C)c1N(C)S(=O)(=O)c1ccc(Cl)cc1 | 6.12 |
| CCOc1ccc(/C(O)=C2/C(=O)C(=O)N(c3ncccn3)C2c2ccc(C)cc2)cc1 (stereo not drawn) | 9.87 |
| CCOC(=O)c1c(NC(=O)Cn2nc(C(=O)O)c3ccccc3c2=O)sc(C)c1C | 12.4 |
| CC(C)C(=O)Nc1ccc(NC(=O)c2cccc3c(Br)cccc23)cc1 | 9.36 |

| Compound | hERG current change (%, negative = inhibition) at 1uM [%] |
| --- | --- |
| CC(C)COc1nc2c(c(=O)n(C)c(=O)n2C)n1C | -1.65 |
| COc1cc(C(=O)NCCCOC(C)C)ccc1OC1CCN(C(C)=O)CC1 | 15.9 |
| COc1cc(CN2CCCC(C(=O)c3sccc3C)C2)cc(OC)c1O (stereo not drawn) | -15.2 |
| O=S(=O)(c1c(F)cccc1F)N1CCN(Cc2c(O)ccc3ccccc23)CC1 | 6.69 |
| Cc1cccc(C(C)Nc2ccc([N+](=O)[O-])cn2)c1 (stereo not drawn) | -5.66 |
| Cc1ccc(N(CC(=O)NCC2CCCO2)C(=O)CCC(=O)Nc2nccs2)cc1C (stereo not drawn) | 16 |
| CCOc1ccc(C(=O)NC2CCN(C(=O)Nc3ccccc3OC)CC2)cc1 | 16.3 |
| CN1CCc2c(sc3c2C(=O)NC(c2ccco2)N3)C1 (stereo not drawn) | 10.6 |
| Cc1ccc(OCCn2cc(/C=C3\C(=O)NN(c4ccccc4)C3=O)c3ccccc32)cc1 | 9.93 |
| O=C(Nc1cccc(S(=O)(=O)N2CCOCC2)c1)c1ccc(N2CCOCC2)c([N+](=O)[O-])c1 | 2.79 |
| Cc1nc(C(F)(F)F)c(C(=O)N/N=C(\N)c2cccnc2)s1 | 19 |
| COc1ccc(CN2CCNC(=O)C2CC(=O)N(C)Cc2nccs2)c(OC)c1 (stereo not drawn) | 13.1 |
| COCCNC(=O)C1CC2Cn3c(nc4cc(Cl)c(Cl)cc43)C2N1C (stereo not drawn) | -7.67 |
| Cc1ccc(Cl)cc1N1CCN(C(=O)c2noc(C(C)C)c2[N+](=O)[O-])CC1 | 3.01 |
| O=C(CCC(=O)N1CCCC1)Nc1nnc(C2CCCCC2)s1 | 8.89 |
| Cn1nc(C(F)(F)F)c(C(=O)Nc2ccc(F)cc2F)c1Sc1cccc(Cl)c1 | -1.51 |
| Fc1ccc(-c2nnc(-n3nnc4ccccc43)c3ccccc23)cc1 | 8.44 |
| O=C(c1c[nH]c(C(=O)C(Cl)(Cl)Cl)c1)c1ccccc1F | 8.26 |
| COC(=O)c1cc(=O)nc2sc(-c3ccc(F)cc3)nn12 | 2.2 |
| CC(=O)Nc1ccc(-c2csc(NC(=O)CN3C(=O)NC4(CCCC4)C3=O)n2)cc1 | 22.1 |
| COc1ccc(NC(=O)[C@@H](NC(=O)c2ccccc2)C(C)C)cc1S(=O)(=O)N1CCCCC1 | 15.2 |
| O=c1c2c(n3cnnc3n1-c1ccccc1)-c1ccccc1CC21CCCC1 | 6.62 |
| CCc1cc(C(=O)OC)c(NC(=O)c2ccoc2C)s1 | 13.9 |
| CN(C)S(=O)(=O)c1ccc(/C(O)=C2/C(=O)C(=O)N(Cc3cccnc3)C2c2ccco2)cc1 (stereo not drawn) | 8.6 |
| COc1cc(C2NC(=O)NC(C)=C2C(=O)OC(C)(C)C)ccc1OCC(=O)O (stereo not drawn) | 20.8 |
| O=c1c(/C=C(\O)c2ccccc2)nc2ccccc2n1-c1ccccc1 | 11.9 |
| O=C(N/N=C/c1ccc(Br)s1)c1cccnc1 | 0.941 |

From publication PMC4336329 (PLoS ONE, 2015)
